# Experimental data taken from paper PMC4336329 (PLoS ONE, 2015).
# The campaign covered roughly 310,000 compounds. About 2,200 (0.71%) showed an effect of 50% or more. Effects have a minus sign here. Some of the results follow.
# Biological target: human ether-à-go-go-related gene (hERG) potassium channel (human, UniProt Q12809)
# Assay: primary screen, population patch clamp on CHO cells stably expressing hERG
# Sequence of human ether-à-go-go-related gene (hERG) potassium channel (Q12809 whole entry, looked up): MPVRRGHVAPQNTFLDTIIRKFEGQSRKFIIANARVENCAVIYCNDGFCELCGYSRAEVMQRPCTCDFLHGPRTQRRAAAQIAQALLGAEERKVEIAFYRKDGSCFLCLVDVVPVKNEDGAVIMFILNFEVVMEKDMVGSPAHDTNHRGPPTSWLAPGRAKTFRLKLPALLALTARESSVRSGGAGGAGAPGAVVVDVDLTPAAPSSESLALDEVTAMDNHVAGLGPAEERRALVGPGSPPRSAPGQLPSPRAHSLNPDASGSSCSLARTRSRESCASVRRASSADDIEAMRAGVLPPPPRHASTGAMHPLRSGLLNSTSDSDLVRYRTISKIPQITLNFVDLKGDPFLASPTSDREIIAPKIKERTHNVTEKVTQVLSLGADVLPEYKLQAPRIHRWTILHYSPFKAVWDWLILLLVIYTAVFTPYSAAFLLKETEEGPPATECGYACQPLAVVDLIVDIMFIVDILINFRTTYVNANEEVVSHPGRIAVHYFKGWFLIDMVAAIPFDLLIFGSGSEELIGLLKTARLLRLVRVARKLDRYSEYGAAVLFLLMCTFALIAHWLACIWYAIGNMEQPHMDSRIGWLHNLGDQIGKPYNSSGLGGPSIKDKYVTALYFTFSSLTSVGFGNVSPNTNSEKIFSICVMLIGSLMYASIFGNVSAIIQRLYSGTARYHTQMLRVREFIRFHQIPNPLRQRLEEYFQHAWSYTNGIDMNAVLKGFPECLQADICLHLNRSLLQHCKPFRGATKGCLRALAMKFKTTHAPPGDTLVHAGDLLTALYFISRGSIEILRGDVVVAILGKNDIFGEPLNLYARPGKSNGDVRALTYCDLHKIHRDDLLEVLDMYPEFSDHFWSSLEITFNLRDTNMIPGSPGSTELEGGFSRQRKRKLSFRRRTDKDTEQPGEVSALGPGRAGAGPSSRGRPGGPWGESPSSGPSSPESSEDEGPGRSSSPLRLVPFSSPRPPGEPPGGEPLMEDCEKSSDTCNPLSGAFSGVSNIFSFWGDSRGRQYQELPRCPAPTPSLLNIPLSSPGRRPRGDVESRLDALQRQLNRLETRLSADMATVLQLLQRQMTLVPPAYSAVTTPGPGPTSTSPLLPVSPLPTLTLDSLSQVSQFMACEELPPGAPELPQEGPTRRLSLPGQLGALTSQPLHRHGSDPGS
row,Structure (SMILES),"hERG current change (%, negative = inhibition) at 1uM"
1,CC1Cn2c(nnc2-c2ccccc2O)S1 (centres unmarked),1.21%
2,CCN1CCN(C(=O)c2ccc3c(c2)c(C)c(C)n3Cc2ccccc2)CC1,13.9%
3,Cc1ccc(C(=O)NCCNC(=O)c2ccccc2)cc1,11.9%
4,CCOC(=O)c1cc(NC(=O)c2ccc(Cl)cc2)c(=O)n2c1oc1ccc(Cl)cc12,14.8%
5,CC1(c2nnc(-c3ccccc3)o2)CC(c2cccc(Cl)c2)=NO1 (centres unmarked),12.3%
6,Cc1cccc(NC(=O)CSc2nnc(-c3ccco3)c(-c3ccco3)n2)c1C,3.37%
7,CCc1ccccc1N1C(=O)NC(=O)/C(=C\c2cc(C)n(C)c2C)C1=O,3.08%
8,CCOC(=O)C1CCCN(C(=S)Nc2ccc(OC)cc2)C1 (centres unmarked),14.4%
9,Cn1c(=O)n(Cc2ccc(F)cc2)c(=O)c2c1nc1n2CCN1Cc1ccco1,-5.84%
10,Cc1cnc(Sc2ncccc2[N+](=O)[O-])nc1,2.72%
11,CC(C)(C)OC(=O)[C@H](Cc1ccccc1)NC(=O)c1nc[nH]c1C(=O)N[C@@H](Cc1ccccc1)C(=O)OC(C)(C)C,9.8%
12,c1ccc(-n2c(Cc3cccnc3)nc3cnccc32)cc1,-18.3%
13,NS(=O)(=O)c1cccc(NC(=O)COC(=O)Cc2n[nH]c(=O)c3ccccc23)c1,5.55%
14,Cn1c(SCC(=O)NCC2CCCO2)nc2c(c1=O)SCC2 (centres unmarked),11%
15,O=C(CCNC(=O)Cn1ccc2ccccc2c1=O)NCCc1ccccc1Cl,2.53%
16,COC(=O)c1cccc(NC(=S)N2CCOCC2)c1,26.8%
17,C[C@H](NC(=O)[C@@H]1CSC2c3ccccc3C(=O)N21)C(=O)NC1CCCCC1 (some centres unmarked),4.82%
18,COc1cc(CN2CCN(C3CCC3)CC2CCO)cc(OC)c1 (centres unmarked),9.74%
19,O=C(CCC(=O)OCCCC(F)(F)C(F)(F)F)NC1CCCCC1,15.3%

row,Structure (SMILES),"hERG current change (%, negative = inhibition) at 1uM"
1,O=C(O)C(c1ccccc1)N1C(=O)/C(=C\c2ccc(-c3cccc(Cl)c3)o2)SC1=S (centres unmarked),5.63%
2,CCCN(CCC)c1ccc(/C=N/NC(=O)CN2CCOCC2)cc1,-6.07%
3,Cc1ccccc1NC1C=CS(=O)(=O)C1 (centres unmarked),14.8%
4,C=CCC1(/C=N/O)CCOC(C)(C)C1 (centres unmarked),15.5%
5,COc1ccc(C2NC(=O)C(C#N)=C(S)N2c2cccc(C)c2)cc1OC (centres unmarked),17.2%
6,CN(C)S(=O)(=O)c1ccc(NC(=O)CCCNC(=O)c2ccc(Cl)cc2)cc1,7.96%
7,COCCNC(=O)C1(C)Oc2ccccc2NC1=O (centres unmarked),11.7%
8,CCCN(CC(=O)Nc1ccccc1C)C(=O)c1nn(CC)c(=O)c2ccccc12,-1.4%
9,Cc1ccccc1NC(=O)C(=O)c1cn(C)c2ccccc12,9.02%
10,CCO[C@H]1OC(C(=O)N2CCN(C)CC2)=C[C@@H](c2ccc(Br)cc2)[C@@H]1CCCO,-8.05%
11,CC1(C)CC(=O)C(C2C3=C(CC(C)(C)CC3=O)Oc3ccc4ccccc4c32)C(=O)C1 (centres unmarked),7.73%
12,Cc1c(C(=O)NCc2c(F)cc(F)cc2F)oc2ccc(S(=O)(=O)N3CCOCC3)cc12,16.8%
13,COc1cc(CCC(=O)Nc2ccc(S(=O)(=O)N3CCCC3)cc2)cc(OC)c1OC,1.12%
14,COc1cc(OC)cc(C(=O)NC(C(=O)NNC(=O)c2ccc(C)cc2)C(C)C)c1 (centres unmarked),8.48%
15,CCOc1cc(/C=N/NC(=O)c2ccccn2)ccc1OC(=O)c1ccc(F)cc1,-9.02%
16,Cc1ccccc1-c1n[nH]c(=S)o1,13.8%
17,Cn1c(=O)n(Cc2ccc(Cl)cc2)c2ccccc21,9.29%
18,O=C(CSc1nnc(NC(=O)c2ccccc2F)s1)NCc1ccc(F)cc1,9.09%
19,C(=N\n1c2ccccc2c2ccccc21)/c1ccccc1,9.08%

row,Structure (SMILES),"hERG current change (%, negative = inhibition) at 1uM"
1,CCC(C)n1c(SCC(=O)NC2CCCC2)nc2ccccc2c1=O (centres unmarked),8.73%
2,O=C(c1cc(-c2ccccc2)nn1CC1CC(c2cccnc2)=NO1)N1CCOCC1 (centres unmarked),12.2%
3,CC(C)C[C@H](NC(=O)N1CCN(c2ccccc2)CC1)C(=O)O,7.7%
4,NS(=O)(=O)c1cccc(NC(=S)NCc2ccc3c(c2)OCO3)c1,7.74%
5,CCC(=O)N1c2ccc(S(=O)(=O)NCCc3ccccc3)cc2CC1C (centres unmarked),13.6%
6,O=C(CCn1cccc1)Nc1ccccc1F,14.3%
7,CCCCNC(=O)CSc1nnc(-c2ccc(S(=O)(=O)N3CCCC3)cc2)n1C,4.16%
8,O=C(Nc1cccc(Cl)c1N1CCOCC1)c1cc([N+](=O)[O-])ccc1N1CCOCC1,12.8%
9,CC(C)(C)NC(=O)C(OC(=O)c1cccs1)c1ccc(F)cc1 (centres unmarked),11.6%
10,COc1ccc(COC(=O)Nc2c(SC)nsc2SC)cc1,10.7%
11,O=C1CSc2ccc(S(=O)(=O)N3CCN(c4ccccc4F)CC3)cc2N1,7.79%
12,CC(C)N1CCC(=NNc2ccc(S(=O)(=O)N3CCOCC3)cc2[N+](=O)[O-])CC1,1.63%
13,CCc1nnc(NC(=O)CCC(=O)Nc2ccccc2)s1,17.2%
14,O=C(Cc1ccc(NC2=NC3CS(=O)(=O)CC3S2)cc1)Nc1ccc(F)cc1 (centres unmarked),2.4%
15,c1ccc(-c2ccccc2OCCn2cncn2)cc1,5.88%
16,Cc1cc(C(F)(F)F)nn1Cc1n[nH]c(=S)n1-c1cccc(Cl)c1,0.656%
17,CSCC[C@H](NC(=O)COc1cc2c(c3oc(=O)c(C)c(C)c13)CCC(C)(C)O2)C(=O)O,10%
18,O=C(c1ccc(COc2c(F)c(F)cc(F)c2F)o1)N1CCN(c2ccccc2)CC1,1.5%
